Screen size: about 280,000 compounds; about 540 (0.19%) were called active. The inconclusive results got no clear call from the source; some entries with a clear call stand among them for comparison. Calls come from the whole dose curve; as a rule, active = well fitted activation curve with a large enough effect; inconclusive = small, poorly fitted or top-dose-only effect; inactive = flat fitted curve, though single readings scatter. Where the call is inconclusive, the potency comes from a doubtful curve fit.
Experiment: Quantitative High-Throughput Screen for Regulators of Epigenetic Control; note: nearly all actives have a fitted effect of over 60% in size
Conditions: murine LDR cells, GFP reporter derepression, 30 h; series mostly up to 53.9 µM
Method in brief: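 Readout is the number of GFP-expressing murine LDR cells, counted by cytometry following washing. Cells were treated with compound for 30 h at 37 C; the stably integrated CMV-GFP locus is normally silent.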
Potency is the fitted concentration of half-maximal effect; tags give direction and shape of the fitted curve.

SMILES	Potency
CC1CC/C(=C\c2ccc3c(c2)OCO3)C(=O)/C1=C/c1ccc2c(c1)OCO2 (centres undefined)	inconclusive: 22.4 µM [activator, single point]
O=C(Nc1ccc(-c2cn3ccccc3n2)cc1)c1cccs1	inconclusive: 14.1 µM [activator, single point]
CCCN[C@@H](C)C(=O)Nc1c(C)csc1C(=O)OC	inactive
Oc1ccc(C(=S)N2CCN(Cc3ccccc3)CC2)cc1	inactive
N#CC1=C(N)N(c2ccc(Cl)cc2)C2=C(C(=O)CCC2)C1c1cc(CN2CCOCC2)cs1 (centres undefined)	inconclusive: 25.1 µM [activator, single point]
COC(=O)COn1c(-n2nc(C)cc2C)nc2ccccc2c1=O	inconclusive: 20 µM [activator, single point]
Cn1c(SCC(=O)N2CCOCC2)ncc(C(=O)Nc2ccc(F)cc2)c1=O	inconclusive: 35.5 µM [activator, single point]
CC(C)(C)OC(=O)[C@H](Cc1ccccc1)NC(=O)c1[nH]cnc1C(=O)Nc1ccc(Cl)cc1	inconclusive: 35.5 µM [activator, single point]
CN(C)c1ccc(/C=N/NC(=O)C(O)(c2ccccc2)c2ccccc2)o1	inconclusive: 35.5 µM [activator, single point]
CCOC(=O)COc1ccccc1/C=C\[N+](=O)[O-]	inconclusive: 5.62 µM [activator, single point]
O=C(c1ccc2c(c1)N(Cc1ccccc1F)C(=O)c1ccccc1S2=O)N1CCC(Cc2ccccc2)CC1 (centres undefined)	inactive
COc1cc(C(=O)Nc2cc(C)c(O)c(-c3nc4cc(Cl)ccc4o3)c2)cc(OC)c1OC	inconclusive: 10 µM [activator, partial curve]
Cc1ccc(CNC(=O)c2ccc3c(c2)NC(=O)C(CS(=O)(=O)Cc2cccc(C)c2)N3)cc1 (centres undefined)	inconclusive: 20 µM [activator, single point]
O=c1ccc(=O)n(-c2ccccc2)[nH]1	inactive
C(=N\Nc1nc(-c2ccccn2)nc2ccccc12)/c1ccccc1	active: 10 µM
CCS(=O)(=O)N1N=C(c2cccc(NS(C)(=O)=O)c2)CC1c1ccc(C)cc1 (centres undefined)	active: 22.4 µM
COc1ccc(Cl)cc1NC(=O)C1COc2ccccc2O1 (centres undefined)	inactive
COc1ccccc1CNC(=O)c1cc2cccc3c2n1CCS3	inconclusive: 35.5 µM [activator, single point]
CN(C(=O)COC(=O)c1ccc([N+](=O)[O-])cc1N)c1ccccc1	inconclusive: 28.2 µM [activator, single point]

Source: PubChem BioAssay AID1865 (National Center for Advancing Translational Sciences (NCATS), 2009)
